No constants are given. Whether binding was seen depends on the method and setting. Binding seen in cells or lysates may run through a third protein. Some results given as binding are weak or reduced against the parent protein; the word gives no strength. For some assays here: Tags and fused reporters may be left off the sequences shown.
What was measured:
[1] = biological target: T1, GST-DAT-NT (complete N terminus of DAT fused to GST) (human) (UniProt Q01959); test: pull-down; in vitro binding assay: glutathione beads with 20 μg GST fusion or GST incubated with [35S]-methionine-labeled in vitro translated CPE probe, room temperature, 1 hour; washed six times with PBS with 0.1-0.5% Triton X-100; autoradiography; only the target purified
T1 sequence: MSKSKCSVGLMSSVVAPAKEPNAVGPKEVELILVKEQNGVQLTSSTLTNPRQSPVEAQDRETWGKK

Amino acid sequences for entries named in this document (tags omitted). Residues count along the entry.
UniProt P15087, residues 43-476: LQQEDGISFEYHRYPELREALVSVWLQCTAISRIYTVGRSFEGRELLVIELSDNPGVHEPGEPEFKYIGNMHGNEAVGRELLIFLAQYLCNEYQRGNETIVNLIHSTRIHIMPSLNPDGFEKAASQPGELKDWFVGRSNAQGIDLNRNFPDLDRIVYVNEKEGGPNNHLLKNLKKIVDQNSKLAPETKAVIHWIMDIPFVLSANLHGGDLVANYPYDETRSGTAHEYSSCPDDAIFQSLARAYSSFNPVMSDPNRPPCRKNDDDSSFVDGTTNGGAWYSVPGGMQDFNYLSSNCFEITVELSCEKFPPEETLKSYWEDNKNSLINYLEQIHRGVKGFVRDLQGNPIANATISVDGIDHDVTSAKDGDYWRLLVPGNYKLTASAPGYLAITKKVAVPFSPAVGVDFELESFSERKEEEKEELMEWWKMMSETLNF
UniProt P16870: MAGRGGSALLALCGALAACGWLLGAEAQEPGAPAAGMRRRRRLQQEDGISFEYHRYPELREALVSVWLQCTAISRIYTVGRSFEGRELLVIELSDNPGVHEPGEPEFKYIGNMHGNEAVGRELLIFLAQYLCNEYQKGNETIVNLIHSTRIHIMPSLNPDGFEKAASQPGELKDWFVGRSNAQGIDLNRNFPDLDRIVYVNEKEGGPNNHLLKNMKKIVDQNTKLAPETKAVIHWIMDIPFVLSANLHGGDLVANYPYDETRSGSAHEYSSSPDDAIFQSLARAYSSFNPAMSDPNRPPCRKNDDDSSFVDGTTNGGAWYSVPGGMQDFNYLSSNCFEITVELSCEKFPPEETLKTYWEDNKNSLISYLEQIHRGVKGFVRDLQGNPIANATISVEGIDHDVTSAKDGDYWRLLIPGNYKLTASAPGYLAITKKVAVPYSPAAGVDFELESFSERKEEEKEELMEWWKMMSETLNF
UniProt P23977: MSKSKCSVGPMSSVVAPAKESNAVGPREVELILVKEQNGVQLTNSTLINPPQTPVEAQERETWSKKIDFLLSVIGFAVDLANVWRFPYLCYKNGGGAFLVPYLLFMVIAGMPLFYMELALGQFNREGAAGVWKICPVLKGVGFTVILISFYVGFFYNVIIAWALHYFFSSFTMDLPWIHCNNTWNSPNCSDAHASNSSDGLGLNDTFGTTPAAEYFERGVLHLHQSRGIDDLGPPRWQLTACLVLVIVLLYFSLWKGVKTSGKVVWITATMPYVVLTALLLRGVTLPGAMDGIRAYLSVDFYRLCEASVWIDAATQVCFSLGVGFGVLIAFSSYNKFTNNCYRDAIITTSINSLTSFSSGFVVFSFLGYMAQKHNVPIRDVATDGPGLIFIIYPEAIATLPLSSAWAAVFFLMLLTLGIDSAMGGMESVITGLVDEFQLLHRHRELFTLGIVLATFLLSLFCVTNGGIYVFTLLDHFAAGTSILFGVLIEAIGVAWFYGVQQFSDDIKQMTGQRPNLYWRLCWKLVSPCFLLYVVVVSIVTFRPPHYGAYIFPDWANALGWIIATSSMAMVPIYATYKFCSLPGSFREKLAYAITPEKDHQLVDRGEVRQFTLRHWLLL

[2] = biological target: GST-DAT-CT (complete C terminus of DAT fused to GST) (human) (UniProt Q01959); test: as above
[3] = biological target: T1, GST-DAT-NT (complete N terminus of DAT fused to GST) (human); test: pull-down; GST-fusion proteins (50 to 100 μg) on glutathione-Sepharose beads incubated with solubilized rat striatum extracts (50-100 μg protein), 4°C, 12 hr; washed with PBS with 0.1-0.5% Triton X-100; Western blot with anti-CPE; only the target purified
[4] = biological target: GST-DAT-CT (complete C terminus of DAT fused to GST) (human) (UniProt Q01959); test: as above
[5] = biological target: carboxypeptidase E (CPE), endogenous in rat striatum (rat (endogenous in striatum)) (UniProt P15087); test: co-IP; solubilized rat striatum extracts (500 to 700 μg protein), anti-CPE antibodies, protein A/G agarose, 4°C, blot with anti-DAT; also striatal slices with or without 2 μM PMA for 30 min (association reduced by PMA)

[35S]-methionine-labeled CPE probe, in vitro translated (from UniProt P16870 1-476)
binding [1]: no binding | binding [2]: binds

carboxypeptidase E (CPE), endogenous in rat striatum (from UniProt P15087 43-476)
binding [3]: no binding | binding [4]: binds

dopamine transporter (DAT), endogenous in rat striatum (from UniProt P23977 1-619)
binding [5]: binds
